The whole screen tested about 150,000 compounds, of which about 540 (0.36%) showed an effect of 50% or more. This is one part of the list.
What follows are compounds tested on Plasmodium falciparum (assay: Primary screen in NF54 nanoGlo assay, in single point, at 2uM, 72h; a lower Z score goes with more inhibition). Details: timepoint 72 hour.
Assay type: functional, Erythrocyte
`Cc1cc(C)nc(-n2nc(-c3ccc(Cl)cc3)c3c2NC(=O)C[C@@H]3c2cccc(O)c2)n1` was tested, and the “% Inhibition” value was -1% and the Z score was 0.09.
With `O=C(Nc1cc(F)ccc1OC(F)F)c1cnc2n1CCOC2` the “% Inhibition” value was -7% and the Z score was 0.69.
`C[C@@H](CCNC(=O)c1cccn1-c1cccnc1)N1CCCCCC1` was tested, and the “% Inhibition” value was -2% and the Z score was 0.16.
With `O=C(NCCc1ccco1)NC1CCCC1` the “% Inhibition” value was -1% and the Z score was 0.14.
In the case of `CC(=O)C1=C(c2ccccc2)S/C(=C2/C(=S)C(C)(C)Nc3cc(C)ccc32)S1`, the “% Inhibition” value is reported as -41% and the Z score is reported as 4.8.
For `CC1CN(CC(O)CC(F)(F)F)CCN1C(=O)OC(C)(C)C` (centres undefined), the “% Inhibition” value was 8% and the Z score was -1.13.
For `Clc1c[nH]c2nc(-c3ccccn3)nc-2c1`, the “% Inhibition” value was -9% and the Z score was 1.15.
With `CC(C)(CNC(=O)[C@@H]1CN(S(=O)(=O)c2ccccc2Cl)CCO1)Oc1ccccc1` the “% Inhibition” value was -7% and the Z score was 0.82.
With `C=CCN(CCOc1ccc(C#N)cc1)[C@H]1CCS(=O)(=O)C1` the “% Inhibition” value was -6% and the Z score was 0.58.
`Cc1ncc2c(c1-c1nn[nH]n1)-c1ccccc1CC2` was tested, and the “% Inhibition” value was -12% and the Z score was 1.52.
With `Cc1ccc(-c2nc3cc(F)ccc3cc2CN2CCC[C@H]2C(N)=O)cc1` the “% Inhibition” value was -13% and the Z score was 1.68.
For `Cc1nc(C(=O)NCCCN2CCOCC2)c(C)s1`, the “% Inhibition” value was 10% and the Z score was -1.34.
In the case of `O=S(=O)(NCCc1ccncc1)C1CC1`, the “% Inhibition” value is reported as -10% and the Z score is reported as 1.48.
In the case of `C#CCN1CCCC[C@H]1C(=O)NCc1nc(-c2ccco2)n[nH]1`, the “% Inhibition” value is reported as -3% and the Z score is reported as 0.53.
For `Cc1nocc1NC(=O)N1CCC[C@]1(C)Cc1ccc(Cl)s1`, the “% Inhibition” value was 20% and the Z score was -2.49.
In the case of `O=C(c1cn(CC(=O)N2CCCC2)c2ccccc12)C1CCCCC1`, the “% Inhibition” value is reported as 24% and the Z score is reported as -2.71.
With `Cc1cc(CN2CC[C@H](CNC(=O)C3CCCCCC3)C2)[nH]n1` the “% Inhibition” value was -3% and the Z score was 0.65.
`O=C(N[C@H]1COC[C@H]1n1ccnn1)N1CCC2(C=Cc3ccccc3O2)CC1` was tested, and the “% Inhibition” value was 0% and the Z score was -0.06.
For `C[C@H]1COCCN1Cc1nc2cc(Br)cnc2[nH]1`, the “% Inhibition” value was -14% and the Z score was 2.92.
With `Cc1cc(C)c2c(C)c(C(=O)NC[C@@H](c3ccco3)N3CCCC3)oc2c1` the “% Inhibition” value was 12% and the Z score was -1.36.
With `Cn1ccnc1CN(C(=O)C1CC(c2ccc(F)cc2)C1)[C@H]1CC12CCNCC2` (some centres undefined) the “% Inhibition” value was -5% and the Z score was 0.61.
For `COc1ccc(-n2ccnc(NC(=O)c3ccc(F)cc3)c2=O)c(C)c1`, the “% Inhibition” value was -11% and the Z score was 1.43.
In the case of `Cc1cc(C)c2oc(N3CCn4cnnc4[C@@H]3C)nc2c1`, the “% Inhibition” value is reported as -2% and the Z score is reported as 0.35.
For `Cc1nccnc1CCNC(=O)N1CC2CCCCC2C1` (centres undefined), the “% Inhibition” value was 1% and the Z score was -0.18.
`O=C(NC1CC1)c1ccccc1NC(=O)c1cccc[n+]1[O-]` was tested, and the “% Inhibition” value was 8% and the Z score was -1.2.
`Cc1cc(NC(=O)CN(C)C2CCCCCC2)on1` was tested, and the “% Inhibition” value was 11% and the Z score was -1.
For `O=C(c1cn[nH]c1)N1C[C@@H]2[C@@](C(F)(F)F)(CCCS2(=O)=O)C1`, the “% Inhibition” value was -13% and the Z score was 2.33.
In the case of `CCCCCC(=O)N[C@H]1CCN(Cc2c(C)noc2C)C[C@@H]1O`, the “% Inhibition” value is reported as -22% and the Z score is reported as 1.98.
In the case of `CC(C)c1cc(C(=O)N[C@H]2[C@@H]3COC[C@@H]32)no1`, the “% Inhibition” value is reported as -10% and the Z score is reported as 1.59.
In the case of `CO[C@H]1[C@H](NC(=O)COc2ccccc2)c2ccccc2C12CCN(C(=O)c1c(C)noc1C)CC2`, the “% Inhibition” value is reported as -7% and the Z score is reported as 1.24.
For `CC(C)Nc1ccc(C(F)(F)F)cn1`, the “% Inhibition” value was -1% and the Z score was 0.29.
With `COC(=O)CC(=O)Nc1ccccc1Cl` the “% Inhibition” value was -17% and the Z score was 1.58.
With `O=C(NCc1cccc(Cl)c1)c1cc2n(n1)C[C@@H](c1ccc3c(c1)OCO3)OC2` the “% Inhibition” value was -19% and the Z score was 3.24.
For `C=CCCCC(C)NC(=O)N1CC(C)OC(CO)C1` (centres undefined), the “% Inhibition” value was -11% and the Z score was 1.18.
In the case of `Cn1cccc1C(=O)NCC1(C)CCOCC1`, the “% Inhibition” value is reported as -7% and the Z score is reported as 1.27.
`COC(=O)c1cc2n(n1)CCN(Cc1ccc(OC)cc1)C2=O` was tested, and the “% Inhibition” value was -6% and the Z score was 1.19.
For `COc1cc(F)cc2sc(NC(=O)C(C)(C)n3cc(Cl)cn3)nc12`, the “% Inhibition” value was 4% and the Z score was -0.46.
`COc1ccc(NC(=O)N[C@H]2CC(=O)N(c3ccc4c(c3)OCCO4)C2)c(OC)c1` was tested, and the “% Inhibition” value was 1% and the Z score was -0.17.
With `Cc1occc1CN(C)C(=O)Nc1cnsn1` the “% Inhibition” value was 12% and the Z score was -1.16.
With `COCCc1noc([C@@H]2CCCN2Cc2nnc(C)s2)n1` the “% Inhibition” value was -2% and the Z score was 0.26.
With `O=C1NCCN1CCn1cc([C@H]2CCOC2)nn1` the “% Inhibition” value was -7% and the Z score was 1.18.
`CN(C)C(=O)c1cccc(NC(=O)c2cc(F)c(F)c(F)c2)n1` was tested, and the “% Inhibition” value was -2% and the Z score was 0.38.
